Data as given in the supplement of paper PMC8728848.
Some of the results follow.

Tests used:
Experiment in all cases: glycan array binding signal (z-score within array); higher = stronger binding
Settings in all cases: glycan notation: IUPAC condensed, linker removed
[1] = target: Gal(b1-4)GalNAc(b1-3)[Fuc(a1-2)]Gal(b1-4)GlcNAc
Procedure, shortened: (§1)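 The binding signal is a Z-score computed within each array. Data were drawn from 3228 arrays in the Consortium for Functional Glycomics database, restricted to those with a known protein sequence. Scores were averaged over arrays of the same protein sequence at different concentrations or buffers, and over linkers, and negative values can be taken as non-binding.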

Gal(b1-4)Glc = target: Gal(b1-4)Glc
Procedure, shortened: as §1

Gal(b1-4)Glc6S = target: Gal(b1-4)Glc6S
Procedure, shortened: as §1

Gal(b1-4)GlcNAc = target: Gal(b1-4)GlcNAc
Procedure, shortened: as §1

[2] = target: Gal(b1-4)GlcNAc(a1-6)Gal(b1-4)GlcNAc
Procedure, shortened: as §1

Gal(b1-4)GlcNAc(b1-2)Man = target: Gal(b1-4)GlcNAc(b1-2)Man
Procedure, shortened: as §1

[3] = target: Gal(b1-4)GlcNAc(b1-2)Man(a1-3)Man(b1-4)GlcNAc(b1-4)GlcNAc
Procedure, shortened: as §1

[4] = target: Gal(b1-4)GlcNAc(b1-2)Man(a1-3)[Gal(b1-4)GlcNAc(b1-2)Man(a1-6)]Man(b1-4)GlcNAc(b1-4)GlcNAc
Procedure, shortened: as §1

[5] = target: Gal(b1-4)GlcNAc(b1-2)Man(a1-3)[Gal(b1-4)GlcNAc(b1-2)Man(a1-6)]Man(b1-4)GlcNAc(b1-4)[Fuc(a1-6)]GlcNAc
Procedure, shortened: as §1

[6] = target: Gal(b1-4)GlcNAc(b1-2)Man(a1-3)[Gal(b1-4)GlcNAc(b1-2)Man(a1-6)][Gal(b1-4)GlcNAc(b1-4)]Man(b1-4)GlcNAc(b1-4)[Fuc(a1-6)]GlcNAc
Procedure, shortened: as §1

[7] = target: Gal(b1-4)GlcNAc(b1-2)Man(a1-3)[Gal(b1-4)GlcNAc(b1-2)Man(a1-6)][GlcNAc(b1-4)]Man(b1-4)GlcNAc(b1-4)[Fuc(a1-6)]GlcNAc
Procedure, shortened: as §1

[8] = target: Gal(b1-4)GlcNAc(b1-2)Man(a1-3)[GlcNAc(b1-2)Man(a1-6)]Man(b1-4)GlcNAc(b1-4)GlcNAc
Procedure, shortened: as §1

[9] = target: Gal(b1-4)GlcNAc(b1-2)Man(a1-3)[GlcNAc(b1-4)][Gal(b1-4)GlcNAc(b1-2)Man(a1-6)]Man(b1-4)GlcNAc(b1-4)GlcNAc
Procedure, shortened: as §1

[10] = target: Gal(b1-4)GlcNAc(b1-2)Man(a1-3)[Man(a1-6)]Man(b1-4)GlcNAc(b1-4)GlcNAc
Procedure, shortened: as §1

[11] = target: Gal(b1-4)GlcNAc(b1-2)Man(a1-6)Man(b1-4)GlcNAc(b1-4)GlcNAc
Procedure, shortened: as §1

[12] = target: Gal(b1-4)GlcNAc(b1-2)Man(a1-6)[GlcNAc(b1-2)Man(a1-3)]Man(b1-4)GlcNAc(b1-4)GlcNAc
Procedure, shortened: as §1

[13] = target: Gal(b1-4)GlcNAc(b1-2)Man(a1-6)[Man(a1-3)]Man(b1-4)GlcNAc(b1-4)GlcNAc
Procedure, shortened: as §1

[14] = target: Gal(b1-4)GlcNAc(b1-2)[Gal(b1-4)GlcNAc(b1-4)]Man(a1-3)[Gal(b1-4)GlcNAc(b1-2)Man(a1-6)]Man(b1-4)GlcNAc(b1-4)GlcNAc
Procedure, shortened: as §1

[15] = target: Gal(b1-4)GlcNAc(b1-2)[Gal(b1-4)GlcNAc(b1-4)]Man(a1-3)[Gal(b1-4)GlcNAc(b1-2)[Gal(b1-4)GlcNAc(b1-6)]Man(a1-6)]Man(b1-4)GlcNAc(b1-4)GlcNAc
Procedure, shortened: as §1

[16] = target: Gal(b1-4)GlcNAc(b1-2)[Gal(b1-4)GlcNAc(b1-4)]Man(a1-3)[GlcNAc(b1-4)][Gal(b1-4)GlcNAc(b1-2)Man(a1-6)]Man(b1-4)GlcNAc(b1-4)GlcNAc
Procedure, shortened: as §1

[17] = target: Gal(b1-4)GlcNAc(b1-2)[Gal(b1-4)GlcNAc(b1-4)]Man(a1-3)[GlcNAc(b1-4)][Gal(b1-4)GlcNAc(b1-2)[Gal(b1-4)GlcNAc(b1-6)]Man(a1-6)]Man(b1-4)GlcNAc(b1-4)GlcNAc
Procedure, shortened: as §1

[18] = target: Gal(b1-4)GlcNAc(b1-2)[Gal(b1-4)GlcNAc(b1-6)]Man(a1-6)[Gal(b1-4)GlcNAc(b1-2)Man(a1-3)]Man(b1-4)GlcNAc(b1-4)GlcNAc
Procedure, shortened: as §1

B1: PFL (Pseudomonas fluorescens) (protein)
chain: MSKYAVANQWGGSSAPWHPGGTWVLGARDNQNVVAIEIKSGDGGKSFTGTMTYAGEGPIGFKAQRTGQNQYNVENQWGGNDAPWHPGGKWVIGGRDNQNVIALSVTSSDGGKNLSGTNTYANEGPIGFRGQIE
B1 was tested, and the “glycan array binding signal (z-score)” value [1] was -0.115, the “glycan array binding signal (z-score)” value (Gal(b1-4)Glc) was -0.116 and the “glycan array binding signal (z-score)” value (Gal(b1-4)Glc6S) was -0.113. The “glycan array binding signal (z-score)” value (Gal(b1-4)GlcNAc) was -0.112, the “glycan array binding signal (z-score)” value [2] was -0.116 and the “glycan array binding signal (z-score)” value (Gal(b1-4)GlcNAc(b1-2)Man) was -0.108. The “glycan array binding signal (z-score)” value [3] was -0.114, the “glycan array binding signal (z-score)” value [4] was -0.113 and the “glycan array binding signal (z-score)” value [5] was 0.032. For the same binder, the “glycan array binding signal (z-score)” value [6] was -0.103, the “glycan array binding signal (z-score)” value [7] was -0.119 and the “glycan array binding signal (z-score)” value [8] was 0.149. For the same binder, the “glycan array binding signal (z-score)” value [9] was -0.117, the “glycan array binding signal (z-score)” value [10] was -0.114 and the “glycan array binding signal (z-score)” value [11] was -0.112. For the same binder, the “glycan array binding signal (z-score)” value [12] was -0.113, the “glycan array binding signal (z-score)” value [13] was -0.112 and the “glycan array binding signal (z-score)” value [14] was -0.036. For the same binder, the “glycan array binding signal (z-score)” value [15] was 0.988, the “glycan array binding signal (z-score)” value [16] was -0.117 and the “glycan array binding signal (z-score)” value [17] was -0.117. The “glycan array binding signal (z-score)” value [18] was -0.059.
